Data taken from the supplement of paper PMC11417369.
Some of the results follow.

tested on: PfHDP1 homeodomain (GST-tagged); test: gcPBM binding intensity (ln(normalized median fluorescence intensity)); higher = stronger DNA binding
How it was run: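 Plasmodium falciparum DNA-binding domains carrying a GST tag were expressed in E. coli and applied for 1 h, at about 25 μg on average, to an Agilent 4 × 180k array. The array held primer-extended double-stranded 36-bp intergenic genomic probes together with negative controls, and binding took place in 1× PBS with 1% milk, 0.2 mg/ml BSA, 0.5% salmon testes DNA and 0.03% Triton X-100. An Alexa488 anti-GST antibody detected bound protein, and the array was scanned at 488 nm. Binding intensity is taken as the highest Masliner-normalised natural-log median intensity across replicate spots of either probe orientation.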

| Sequence | gcPBM binding intensity (ln) |
| --- | --- |
| CTTTTTTTTTAAATATCACACACATATAATATATTC [CACACA_site9222] | 6.64 |
| TACAGATATTCATATAAACACACATACAAATTATGT [CACACA_site7929] | 6.3 |
| TAATTCATCATATGCACACACAATACCAAAATGTGC [CACACA_site191] | 10.3 |
| TATATAATATATTAATGTACGTTATATGTATTCCTT [XGTACX_site6140] | 6.39 |
| AAACAAAACAAAACATGTACACATTATATATATATA [XGTACX_site3374] | 9.04 |
| TTATTTATTTATTGTTGTACACAAAATGATTCTTAA [XGTACX_site6480] | 6.84 |
| ATTAATTATATATATACACACACATACACCCAAATA [CACACA_site9126] | 7.51 |
| TAAATACTTCGTAAAACACACAAGTAGAAAAAAAAA [CACACA_site360] | 6.46 |
| AAAAATATAATATATGCACACATACATACATATATA [CACACA_site7915] | 9.65 |
| ATAATTAGTTCAATTTTTTTTTTTTTTTTTTTTTTT [CACACA_negctrl_site1371] | 6.91 |
| TATACATCATTTTTCAACAACAAAAAAAAAAAAAAT [CACACA_negctrl_site1185] | 6.24 |
| ATATATATAAATACAACACACATGTAATATATAAAT [CACACA_site5766] | 6.79 |
| ACGTAAAATAGGGACGCATGCACAAATATTTTTAAA [TGCATGCA_site336] | 7.93 |
| TATATAAATATATACACACATACATACATACATATA [CACACA_site3835] | 6.78 |
| TTCTAATAAATGTGTTGTACACCTTTAGCAACTATT [XGTACX_site3235] | 6.4 |
| CTATATATATATTTCAGTACATATTAAGAATATATA [XGTACX_site4860] | 6.34 |
| TAATAATTACAAAGAAGTACATAAAAAAAAATTTAT [XGTACX_site4684] | 6.31 |
| AGGAAAAAAGAAAAAACACACATAAATATTTATATA [CACACA_site7446] | 6.32 |
| TATATATATTTATGCACACAAAATATATTATATAAT [CACACA_site5955] | 10.4 |
| TCTTTCTTATTTTAATGATATTTATTCATTCCAGTT [CACACA_negctrl_site1679] | 6.52 |
| ATATAAATAAATATATGTACACACACAAATATATAC [XGTACX_site3950] | 6.55 |
| AAAAAACACGCGCACACACACACACGCGCCCACATA [CACACA_site7106] | 7.52 |

| Sequence | gcPBM binding intensity (ln) |
| --- | --- |
| ATAAAAAAAAATATTTGTACACATATTTATATATTA [XGTACX_site8147] | 6.56 |
| AATACTAAAACCCATACACACACATATATATAGTAC [CACACA_site9041] | 7.05 |
| ACTTTTACACTTTGATTGCACTACTAAACCAGTTCA | 9.37 |
| AGAATTATTCTAAAAACACACAATACAAAAGTGCAT [CACACA_site3004] | 6.91 |
| TGAACAATATATAATAGTACATATTTATTTTTTTCT [XGTACX_site4256] | 6.01 |
| TCTTTCAATATTAATGCATGTTAATAATAAATTTTA [TGCATGCA_site448] | 6.4 |
| ATATGTTTTTTTTTTTTTTTTTAATTTGTCATAAAT [CACACA_negctrl_site1208] | 6.15 |
| TAAAGATGAAATATCACACATATATAAATATATAAA [CACACA_site4580] | 6.13 |
| TAAAAATTAAAACTGGGTACAAATTTATAGATAGCC [XGTACX_site8075] | 6.57 |
| AATTTATTAGATAGATGTACATTTTAATAAAAGTAG [XGTACX_site6819] | 6.38 |
| CATTAACAAATAAATGCACACATATATATAAATAAT [CACACA_site7892] | 9.2 |
| TCCCCTTAATTTAAAACACACAAACAAATAAGTTAG [CACACA_site5973] | 6.48 |
| ATAAATTTTTTATGAACACACAAATACACCCACTCA [CACACA_site5465] | 7.07 |
| ATAACTTTCTATACATGTACACATATATGGTATTTT [XGTACX_site7535] | 6.94 |
| TGTATATATTTTAATAGTACTCATATATATATATAT [XGTACX_site7216] | 9.17 |
| CTTATAAAAAAAATTGCACACATATTATACAGGACG [CACACA_site8133] | 10 |
| TTTACATTTATGTGCACACATTCCATTTGAAAGTAA [CACACA_site1953] | 10.9 |
| AATATTTTTTTTTAAACATGCATATTTGCATTACCC [TGCATGCA_site437] | 8.67 |
| TTTTTTTTAATGAGAAGTACGGTCTTTCAATGTCTT [XGTACX_site6773] | 5.95 |
| ATTGTGTTGACGGGTGACCCTTCCAGAGAAATAGAA [CACACA_negctrl_site1362] | 6.07 |
| GTGTACAGTTTTTGCACACATATAAATAAAAAAAAG [CACACA_site3599] | 10.2 |
| AAAATATTTATATTTACACACACATAATACATATAT [CACACA_site32] | 6.84 |

| Sequence | gcPBM binding intensity (ln) |
| --- | --- |
| ATATATACAAAGGATTAACACACATATTATTATATA [CACACA_site8563] | 6.3 |
| TTCGTTATAATTGAATTTACAATATGCTTTATAATG [XGTACX_negctrl_site238] | 6.24 |
| TAAATTACATGAAATTGTACATGAATATTAAATATA [XGTACX_site3909] | 6.5 |
| GCATATATTATATATTTATTTATTTTTTTTTTTTAA [GTGCAC_negctrl_site193] | 6.25 |
| CAATGTTAACATATTACACACATATGTATTTATAAT [CACACA_site5512] | 7 |
| ATATATATGAATACATGTACGTATTTGTCTATGTAT [XGTACX_site8306] | 6.55 |
| AATAAAGGAAATAAATAATTTATTTTGTAAAATATG [CACACA_negctrl_site97] | 6.42 |
| TCATATGTTAAATGATGTACATTTAATATAAATAAA [XGTACX_site900] | 6.2 |
| AAAAAAAACATCCTCACACATATATATATATATATA [CACACA_site5166] | 9.41 |
| TAATATCATTTATGGGGTACCTCCTATTCTTATTTA [XGTACX_site1839] | 6.18 |
| CGAACTGCACTTTTTAGTACTTAATAATTATTTTTT [XGTACX_site2446] | 7.46 |
| ATGTTACTCAGACACACACACATAAAAAAACAAAAA [CACACA_site3249] | 6.95 |
| TGTGTTAATATATGAAGTACACAATACACACTAATT [XGTACX_site5469] | 6.78 |
| AAATAAAATTATAATACATGCATACATACATATATA [TGCATGCA_site69] | 6.3 |
| TATAAATACATACGTACACACAAATATTAAAATATA [CACACA_site5129] | 6.39 |
| TATCATAAAAAATATACACACAAAGGATATTTATAT [CACACA_site6841] | 6.51 |
| TATGAACACCAACACACACACAAAAAAAAAAAAAAA [CACACA_site2013] | 6.43 |
| GAATACATAATAACATGTACACACATTCTTCTATAA [XGTACX_site8725] | 6.47 |
| TATATATATAGAAATGCATGTTAATAAAAGTTATAA [TGCATGCA_site947] | 7.31 |
| TTGTTTTCTTATTATTACTACAATACTTAAGTCAGA [TGCATGCA_negctrl_site184] | 6.53 |
| TATTTATTTATGGACACACATACAAATCTTCCAGAC [CACACA_site942] | 6.62 |
| TAATCATAACTTGATACGCACACGTTATATAAATAA [CACACA_site1579] | 6.62 |

| Sequence | gcPBM binding intensity (ln) |
| --- | --- |
| TTTTTTTTTTTTTAAACATGCATAATAAATATAATA [TGCATGCA_site265] | 6.49 |
| TTTTTTATTTTGTGCACACACATAAAAATATATATA [CACACA_site761] | 11.4 |
| TTTTGTTGGATACAAAAATTACAAATTATTTAAAAA [TGCATGCA_negctrl_site532] | 5.77 |
| TATATATTTAATTTCACACATATATATAATTATTAT [CACACA_site4936] | 6.37 |
| TTTTTTATTTTAAAAACATGCATAAAATATAATAGT [TGCATGCA_site762] | 6.76 |
| AGATAAAAAAAGTACACACACACATATATTTATATA [CACACA_site7437] | 6.84 |
| ATACACACTTAAAAAAGTACTTAACTACATGAATTG [XGTACX_site1203] | 6.53 |
| ATATTATATATAAAATGTACATTTAAAAATATTATA [XGTACX_site889] | 6.51 |
| TTAAAATAAAGTAGTGGTACAAAAAAAAAAAAAAAA [XGTACX_site6322] | 6.35 |
| ATTAAATCGATATATACACACATGTTTGGTATATTC [CACACA_site7285] | 6.54 |
| TAACCTATAATATTCACACACATATAAATATTATAG [CACACA_site6592] | 6.64 |
| TTTTACTTAAAACACACACACACAAAAAAAAAAAAA [CACACA_site947] | 6.49 |
| AGTAATAGTTTGTGCACACTCAAGTATATCATATAT [CACACA_site4034] | 11.2 |
| TTTTTCAGAAAAGAAACACACATATTTATATTTATA [CACACA_site7167] | 6.18 |
| TAAACAAATAAATAAACACACAATATCTGTATTTAT [CACACA_site5978] | 5.94 |
| TATATGTATATATATTAACACACAAAAAAAAAAAAA [CACACA_site8534] | 6.52 |
| AACAAATATATATGTAGTACATGTTGTAGATAATTT [XGTACX_site24] | 6.68 |
| TTTTTTTTTTTAAATTCACACAATATATAAATATTG [CACACA_site5201] | 6.34 |
| AGAAAAATTATTTTGCGTACATATTTACAATAAAAA [XGTACX_site2144] | 6.42 |
| TACGTAAAATAATTGAGTACATAATTATATATATAT [XGTACX_site5361] | 8.57 |
| TTTAAAATATATAGTACACACGTGAACACAAATACA [CACACA_site4392] | 6.62 |
| GTACATTATTTATATACACACAAAGAAAAATATACA [CACACA_site3452] | 6.78 |
